# Test results from ChEMBL document CHEMBL1811835, “Intramolecular ion-pair prodrugs of zanamivir and guanidino-oseltamivir” (Bioorg Med Chem, 2011).
# Test system: Influenza A virus
# Assay: microbe, parasite or virus in culture
# Settings: A/WSN/1933 (H1N1), MDCK, 48 h
compound,measurement,value
CC(=O)N[C@H]1[C@H]([C@H](O)[C@H](O)CO)OC(C(=O)O)=C[C@@H]1NC(=N)N [ZANAMIVIR],EC50,0.034 µM
CCC(CC)O[C@@H]1C=C(C(=O)OCCCOC(=O)c2ccc3ccccc3c2O)C[C@H](NC(=N)N)[C@H]1NC(C)=O,EC50,1.47 µM
O=C(O)c1ccc2ccccc2c1O [CARBOXYNAPHTHOL],EC50,> 1000 µM
CC(=O)N[C@H]1[C@H]([C@H](O)[C@H](O)CO)OC(C(=O)OCCCOC(=O)c2ccc3ccccc3c2O)=C[C@@H]1NC(=N)N,EC50,0.048 µM
CCC(CC)O[C@@H]1C=C(C(=O)O)C[C@H](NC(=N)N)[C@H]1NC(C)=O,EC50,0.008 µM
CCOC(=O)C1=C[C@H](NC(=N)N)[C@@H](NC(C)=O)[C@H]([C@H](O)[C@H](O)CO)O1,EC50,0.106 µM
CCOC(=O)C1=C[C@@H](OC(CC)CC)[C@H](NC(C)=O)[C@@H](NC(=N)N)C1,EC50,1.17 µM
